The text below walks through data of US20240254223A1 (NOVIMMUNE, published 2024).

Experiment [1] addresses T1, high affinity trimeric IL-2R (IL-2Rα, IL-2Rβ and IL-2Rγ) on HEK-Blue IL-2 cells (UniProt P01589 22-272; P14784 27-551; P31785 23-369).
T1 sequence (looked up) 1: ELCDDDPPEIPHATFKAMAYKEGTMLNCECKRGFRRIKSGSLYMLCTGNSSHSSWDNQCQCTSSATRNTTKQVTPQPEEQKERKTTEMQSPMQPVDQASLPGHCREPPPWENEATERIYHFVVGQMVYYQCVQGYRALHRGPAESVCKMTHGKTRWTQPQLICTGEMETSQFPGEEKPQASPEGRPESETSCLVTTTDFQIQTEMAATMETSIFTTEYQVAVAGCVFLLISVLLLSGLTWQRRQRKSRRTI
T1 sequence (looked up) 2: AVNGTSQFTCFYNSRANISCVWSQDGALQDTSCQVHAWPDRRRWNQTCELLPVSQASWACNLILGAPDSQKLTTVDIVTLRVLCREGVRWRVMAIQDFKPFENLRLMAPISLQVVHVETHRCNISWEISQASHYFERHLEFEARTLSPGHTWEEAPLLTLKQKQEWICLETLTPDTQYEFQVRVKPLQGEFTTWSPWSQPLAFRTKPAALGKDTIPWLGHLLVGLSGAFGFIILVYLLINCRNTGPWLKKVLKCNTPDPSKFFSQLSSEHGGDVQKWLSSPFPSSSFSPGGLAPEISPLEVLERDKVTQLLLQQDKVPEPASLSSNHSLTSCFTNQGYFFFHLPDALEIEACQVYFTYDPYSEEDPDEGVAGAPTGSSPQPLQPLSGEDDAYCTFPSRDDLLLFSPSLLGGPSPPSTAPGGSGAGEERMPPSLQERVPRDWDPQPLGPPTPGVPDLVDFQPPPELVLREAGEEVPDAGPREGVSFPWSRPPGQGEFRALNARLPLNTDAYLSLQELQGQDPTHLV
T1 sequence (looked up) 3: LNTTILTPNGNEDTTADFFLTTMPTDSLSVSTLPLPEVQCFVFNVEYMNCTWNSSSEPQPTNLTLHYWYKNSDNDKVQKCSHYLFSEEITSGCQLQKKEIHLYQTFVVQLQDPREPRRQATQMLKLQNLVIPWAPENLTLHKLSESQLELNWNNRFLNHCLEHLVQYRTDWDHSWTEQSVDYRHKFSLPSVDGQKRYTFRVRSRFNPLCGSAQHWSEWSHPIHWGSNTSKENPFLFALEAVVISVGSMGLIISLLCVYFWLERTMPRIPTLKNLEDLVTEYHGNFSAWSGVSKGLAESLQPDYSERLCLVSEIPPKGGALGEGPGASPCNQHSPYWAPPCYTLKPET
Briefly: cell-based or functional assay.

The target in the next experiment is T2, His-tagged human CD47 (human, UniProt Q08722 fragment, limits assumed).
T2 construct: loaded on HIS1K biosensors at 2.5 µg/mL; also called target antigen; not shown: His tag
The experiment in a line: BLI, His-CD47 on HIS1K sensor, antibody 15 µg/mL. Here is the method:
The capacity of the masking domains to inhibit binding activity of the antibody was evaluated by Bio-Layer Interferometry (BLI). […] Binding experiments were performed to evaluate the masking efficiency and the binding recovery after cleavage of the masking domains. BLI was performed on an Octet RED96 system (Sartorius). His-tagged human CD47 was diluted at 2.5 μg/mL in Kinetic Buffer (KB) (Sartorius) and loaded on HIS1K biosensors (anti-His tag antibody biosensors, Sartorius) for 300 seconds. Loaded biosensors were dipped into antibodies diluted at 15 μg/mL in KB for 300 seconds to monitor association. Then, biosensors were transferred in KB for dissociation for 60 seconds. Binding profiles were then analyzed with ForteBio Data Analysis software.

Experiment [2] addresses T3, CD47 at the surface of Peak cells (human, UniProt Q08722).
T3 construct: whole, on cells; also called cell surface CD47
The experiment in a line: flow cytometry, Peak cells, before cleavage. Here is the method: (§1) Binding activity of antibody-cytokine/receptor fusions before and after cleavage was also evaluated by flow cytometry. Peak cells derived from HEK 293 which are human cells expressing CD47 were used to evaluate masking efficacy and binding recovery to CD47 by flow cytometry. Peak cells were diluted in cold FACS buffer (PBS, 2% BSA) to 1.2×10⁶ cells/mL. 3×10⁵ cells/well were added in a 96 well V-bottom plate. The plate was then centrifugated for 5 min at 1300 rpm, 4° C. Supernatants were removed and cells were washed twice using FACS buffer. A serial dilution of antibody-cytokine/receptor fusions previously digested with MMP-9 or not digested as described above was prepared in FACS buffer. An irrelevant antibody was included. Then, 150 μL of each diluted antibody were added in corresponding well and incubated for 30 min at 4° C. Cells were washed twice with FACS buffer and 100 μL of a mouse anti human Fc-PE conjugated secondary antibody were added and the plate was incubated for 20 min at 4° C. Cells were then washed twice with FACS buffer. Finally, 150 μL of SYTOX blue dead cell stain (ThermoFisher) diluted to 1/5000 in FACS buffer were added before detection by flow cytometry with Cytoflex (Beckman Coulter). Acquisition was performed with 10000 events for each well. Data were analyzed by FlowJo software.
On the technique in general: A flow cytometer gives signals particle by particle.

For experiment [3], the target named is T3, CD47 at the surface of Peak cells. Briefly: flow cytometry, Peak cells; EC50 before / EC50 after cleavage. Here is the method:
as §1

B1: pNOVI V2K K91_J1_IL-2Rα_1_238_CM1_IL-2_21_153_CM1 VKCK_IL-2Rα_1_238_CM1_IL-2_21_153_CM1 VHCH (antibody, human IgG1, kappa)
light: ELCDDDPPEIPHATFKAMAYKEGTMLNCECKRGFRRIKSGSLYMLCTGNSSHSSWDNQCQCTSSATRNTTKQVTPQPEEQKERKTTEMQSPMQPVDQASLPGHCREPPPWENEATERIYHFVVGQMVYYQCVQGYRALHRGPAESVCKMTHGKTRWTQPQLICTGEMETSQFPGEEKPQASPEGRPESETSCLVTTTDFQIQTEMAATMETSIFTTEGGGGSVHMPLGFLGPGGGGS[about 150 residues left out]GGGGSVHMPLGFLGPGGSDIQMTQSPSSLSASVGDRVTITCNVDQVIANWLNWYQQKPGKAPKLLIYAASSLQSGVPSRFSGSGSGTDFTLTISSLQPEDFATYYCQQMHPRAPKQFGQGTKVEIKRTVAAPSVFIFPPSDEQLKSGTASVVCLLNNFYPREAKVQWKVDNALQSGNSQESVTEQDSKDSTYSLSSTLTLSKADYEKHKVYACEVTHQGLSSPVTKSFNRGEC
heavy: ELCDDDPPEIPHATFKAMAYKEGTMLNCECKRGFRRIKSGSLYMLCTGNSSHSSWDNQCQCTSSATRNTTKQVTPQPEEQKERKTTEMQSPMQPVDQASLPGHCREPPPWENEATERIYHFVVGQMVYYQCVQGYRALHRGPAESVCKMTHGKTRWTQPQLICTGEMETSQFPGEEKPQASPEGRPESETSCLVTTTDFQIQTEMAATMETSIFTTEGGGGSVHMPLGFLGPGGGGS[about 150 residues left out]GGGGSVHMPLGFLGPGGS[about 120 residues left out][about 100 residues left out][human IgG1 Fc left out]
notes: masked K91 fusion, uncleaved; also called n1021; construct No 1021
As to B1, in experiment [1], the “EC50 before cleavage IL-2, HEK Blue IL-2 αβγ reporter assay” value is 0.26 nM and the “EC50 ratio (BC/AC), HEK Blue IL-2 αβγ reporter assay” value (“EC50 ratio (BC/AC)” below) came to 26. The “Binding before cleavage (BLI)” value in the experiment with His-tagged human CD47 stood at 0.2 nm. Also, in experiment [2], the midpoint of the response, the EC50, lay at 14.3 nM.

B2: pNOVI V2K K91_IL-2_CM1_VKCK_IL-2Rα WO LIN CM1_VHCH (antibody, human IgG1, kappa)
light: [about 150 residues left out]GGGGSVHMPLGFLGPGGSDIQMTQSPSSLSASVGDRVTITCNVDQVIANWLNWYQQKPGKAPKLLIYAASSLQSGVPSRFSGSGSGTDFTLTISSLQPEDFATYYCQQMHPRAPKQFGQGTKVEIKRTVAAPSVFIFPPSDEQLKSGTASVVCLLNNFYPREAKVQWKVDNALQSGNSQESVTEQDSKDSTYSLSSTLTLSKADYEKHKVYACEVTHQGLSSPVTKSFNRGEC
heavy: ELCDDDPPEIPHATFKAMAYKEGTMLNCECKRGFRRIKSGSLYMLCTGNSSHSSWDNQCQCTSSATRNTTKQVTPQPEEQKERKTTEMQSPMQPVDQASLPGHCREPPPWENEATERIYHFVVGQMVYYQCVQGYRALHRGPAESVCKMTHGKTRWTQPQLICTGEMETSQFPGEEKPQASPEGRPESETSCLVTTTDFQIQTEMAATMETSIFTTEVHMPLGFLGP[about 120 residues left out][about 100 residues left out][human IgG1 Fc left out]
notes: masked K91 fusion, uncleaved; also called n291; construct No 291
For B2, in experiment [1], the “EC50 before cleavage IL-2, HEK Blue IL-2 αβγ reporter assay” value came to 0.05 nM and the “EC50 ratio (BC/AC)” value was determined as 4. For the same molecule, in the experiment with His-tagged human CD47, the “Binding before cleavage (BLI)” value came to 0.8 nm. Besides, the “Binding recovery (BC/AC)” value in experiment [3] amounted to 18. In experiment [2], a half-maximal response (EC50) required 6.9 nM.

B3: pNOVI V2K K91_IL-2 WO LIN CM1 VKCK_IL-2Rα WO LIN CM1_VHCH (antibody, human IgG1, kappa)
light: [about 150 residues left out]VHMPLGFLGPDIQMTQSPSSLSASVGDRVTITCNVDQVIANWLNWYQQKPGKAPKLLIYAASSLQSGVPSRFSGSGSGTDFTLTISSLQPEDFATYYCQQMHPRAPKQFGQGTKVEIKRTVAAPSVFIFPPSDEQLKSGTASVVCLLNNFYPREAKVQWKVDNALQSGNSQESVTEQDSKDSTYSLSSTLTLSKADYEKHKVYACEVTHQGLSSPVTKSFNRGEC
heavy: ELCDDDPPEIPHATFKAMAYKEGTMLNCECKRGFRRIKSGSLYMLCTGNSSHSSWDNQCQCTSSATRNTTKQVTPQPEEQKERKTTEMQSPMQPVDQASLPGHCREPPPWENEATERIYHFVVGQMVYYQCVQGYRALHRGPAESVCKMTHGKTRWTQPQLICTGEMETSQFPGEEKPQASPEGRPESETSCLVTTTDFQIQTEMAATMETSIFTTEVHMPLGFLGP[about 120 residues left out][about 100 residues left out][human IgG1 Fc left out]
notes: masked K91 fusion, uncleaved; also called n361; construct No 361
As to B3, the “EC50 before cleavage IL-2, HEK Blue IL-2 αβγ reporter assay” value in experiment [1] was 0.1 nM. Besides, the “Binding before cleavage (BLI)” value with His-tagged human CD47 came to 0.6 nm. Further, the “Binding recovery (BC/AC)” value in experiment [3] came to 5. Moreover, a half-maximal response in experiment [2] (EC50) required 9.9 nM.

B4: pNOVI V2K K91_IL15_CM1_VKCK_IL15Rα_Sushi 1_CM1_VHCH (antibody)
light: [about 120 residues left out]GGGGSVHMPLGFLGPGGSDIQMTQSPSSLSASVGDRVTITCNVDQVIANWLNWYQQKPGKAPKLLIYAASSLQSGVPSRFSGSGSGTDFTLTISSLQPEDFATYYCQQMHPRAPKQFGQGTKVEIKRTVAAPSVFIFPPSDEQLKSGTASVVCLLNNFYPREAKVQWKVDNALQSGNSQESVTEQDSKDSTYSLSSTLTLSKADYEKHKVYACEVTHQGLSSPVTKSFNRGEC
heavy: ITCPPPMSVEHADIWVKSYSLYSRERYICNSGFKRKAGTSSLTECVLNKATNVAHWTTPSLKCIRDGGGGSVHMPLGFLGPGGS[about 120 residues left out][about 100 residues left out][human IgG1 Fc left out]
notes: masked K91 fusion, uncleaved; 35% aggregates; also called n81; construct No 81
For the molecule B4, in the experiment with His-tagged human CD47, the “Binding before cleavage (BLI)” value is 0.9 nm.

B5: pNOVI V2K K91_M4_IL-2Rα_1_238_CM1_IL-2 Q126T_21_153_CM1 VKCK IL-2Rβ_1_239_CM1_VHCH (antibody, human IgG1, kappa)
light: ELCDDDPPEIPHATFKAMAYKEGTMLNCECKRGFRRIKSGSLYMLCTGNSSHSSWDNQCQCTSSATRNTTKQVTPQPEEQKERKTTEMQSPMQPVDQASLPGHCREPPPWENEATERIYHFVVGQMVYYQCVQGYRALHRGPAESVCKMTHGKTRWTQPQLICTGEMETSQFPGEEKPQASPEGRPESETSCLVTTTDFQIQTEMAATMETSIFTTEGGGGSVHMPLGFLGPGGGGS[about 150 residues with changes left out]GGGGSVHMPLGFLGPGGSDIQMTQSPSSLSASVGDRVTITCNVDQVIANWLNWYQQKPGKAPKLLIYAASSLQSGVPSRFSGSGSGTDFTLTISSLQPEDFATYYCQQMHPRAPKQFGQGTKVEIKRTVAAPSVFIFPPSDEQLKSGTASVVCLLNNFYPREAKVQWKVDNALQSGNSQESVTEQDSKDSTYSLSSTLTLSKADYEKHKVYACEVTHQGLSSPVTKSFNRGEC
heavy: AVNGTSQFTCFYNSRANISCVWSQDGALQDTSCQVHAWPDRRRWNQTCELLPVSQASWACNLILGAPDSQKLTTVDIVTLRVLCREGVRWRVMAIQDFKPFENLRLMAPISLQVVHVETHRCNISWEISQASHYFERHLEFEARTLSPGHTWEEAPLLTLKQKQEWICLETLTPDTQYEFQVRVKPLQGEFTTWSPWSQPLAFRTKPAALGKDGGGGSVHMPLGFLGPGGS[about 120 residues left out][about 100 residues left out][human IgG1 Fc left out]
notes: masked K91 fusion with IL-2 Q126T, uncleaved; also called n800; construct No 800
Turning to B5, in experiment [1], the “EC50 before cleavage IL-2, HEK Blue IL-2 αβγ reporter assay” value was 2.85 nM and the “EC50 ratio (BC/AC)” value came to 6. For the same molecule, the “Binding before cleavage (BLI)” value with His-tagged human CD47 is 0.4 nm. Moreover, the “Binding recovery (BC/AC)” value in experiment [3] turned out to be 32. Moreover, in experiment [2], the EC50 (in general, the concentration needed to bring the measured effect to its halfway point) was found to be 47 nM.
